Measured values reported in the supplement of paper PMC3334620.
Whole data set: some 33,000 sequences, median “E-score (-0.5 to 0.5)” near -0.012, cut for the highest 2% near 0.27. The list shows a part of the results.

Target: T1, Vhr1 (UniProt P40522)
T1 sequence: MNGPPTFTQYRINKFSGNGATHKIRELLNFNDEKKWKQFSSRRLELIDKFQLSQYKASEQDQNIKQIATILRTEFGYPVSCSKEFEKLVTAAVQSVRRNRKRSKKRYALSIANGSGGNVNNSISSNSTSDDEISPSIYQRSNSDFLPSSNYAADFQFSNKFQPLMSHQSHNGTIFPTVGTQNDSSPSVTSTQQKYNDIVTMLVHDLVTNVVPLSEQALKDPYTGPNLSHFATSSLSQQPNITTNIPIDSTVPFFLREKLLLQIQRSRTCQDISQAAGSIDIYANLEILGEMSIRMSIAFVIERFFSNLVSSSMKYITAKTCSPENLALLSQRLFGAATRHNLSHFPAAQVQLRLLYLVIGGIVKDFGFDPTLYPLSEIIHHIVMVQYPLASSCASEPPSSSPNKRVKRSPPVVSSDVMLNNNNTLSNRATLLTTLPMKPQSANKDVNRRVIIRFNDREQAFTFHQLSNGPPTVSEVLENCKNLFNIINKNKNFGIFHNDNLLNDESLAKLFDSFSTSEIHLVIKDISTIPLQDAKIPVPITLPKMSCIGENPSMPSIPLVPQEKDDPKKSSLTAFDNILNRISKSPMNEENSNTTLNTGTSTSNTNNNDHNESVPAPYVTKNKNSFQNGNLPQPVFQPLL
Assay: PBM E-score (8-mer binding enrichment) (E-score (-0.5 to 0.5)); higher = stronger / more preferred TF binding; most listed sequences are background and not binding sites
Details: protein concentration: 200 nM; construct: GST-full length
Protocol: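 Universal 'all 10-mer' protein binding microarrays (Agilent AMADID 015681) probed with GST-tagged S. cerevisiae TFs (full-length or DBD) made by in vitro transcription/translation (PURExpress), about 100-200 nM. Bound TF was detected with fluorescent anti-GST. Each ungapped 8-mer (which stands for itself and its reverse complement) is scored by the PBM enrichment score (E-score), a modified Wilcoxon-Mann-Whitney statistic from -0.5 to +0.5, computed with the Universal PBM Analysis Suite. Scale: above 0.35 generally sequence-specific binding.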

| Sequence | PBM E-score |
| --- | --- |
| ATCTTACG | 0.0722 |
| AAGTTTGG | -0.0987 |
| CTGGAGGC | 0.0635 |
| AGTTTATC | 0.08 |
| CTTTGCCA | -0.17 |
| ATTGCGGC | -0.0266 |
| ATTATCTG | -0.0192 |
| ACCGCAAA | 0.107 |
| ATTCGGGA | -0.0406 |
| CCATCGTA | -0.013 |
| CCCGGGAA | -0.0284 |
| AATTCTTA | -0.2 |
| GACAGACA | 0.294 |
| AACATGTC | -0.0462 |
| CATCGGCA | 0.0451 |
| CATCTTGG | -0.0375 |
| AGTGATAT | 0.0744 |
| CGAAGTAC | 0.0627 |
| GAAGGGGC | -0.281 |
| TGAGAACA | 0.115 |
| GGATTACA | -0.0213 |
| ACACACAC | 0.316 |
| CGAGAATA | 0.0924 |
| ACTTATAG | -0.0878 |
| AAGCGAGT | 0.152 |

| Sequence | PBM E-score |
| --- | --- |
| ATTAAAAG | -0.0882 |
| ATAAAGAC | -0.0597 |
| ATCCGCTC | 0.0753 |
| AAACGCGA | -0.149 |
| GTCGCGTA | 0.148 |
| ATCGCCAT | 0.0743 |
| AGGTGCAA | -0.103 |
| GTCGAGAA | -0.014 |
| GGAAATCA | 0.085 |
| CCCCAAAG | -0.0224 |
| ATGGACAG | -0.0202 |
| ATATCTCC | 0.213 |
| GTGAAGAA | -0.0671 |
| AGACCAAT | -0.0769 |
| AGGGCGGG | 0.251 |
| TACTTGAA | -0.162 |
| GCAGTACA | 0.00185 |
| CAACGAAG | -0.181 |
| AGCGTACT | -0.0306 |
| AAGGCCAG | -0.0252 |
| CTACCAAG | -0.0191 |
| ATATGTTG | 0.00893 |
| AGAGATAC | -0.0896 |
| AGGGTGTC | 0.149 |
| CAGGAGAG | -0.0559 |

| Sequence | PBM E-score |
| --- | --- |
| AGAGCAAA | -0.203 |
| CCAAGAGG | -0.156 |
| AAGATATA | -0.00704 |
| CTGCAACA | -0.095 |
| CCTGTGTA | 0.133 |
| ATCTATCA | 0.137 |
| CATGACGC | 0.223 |
| ACTTCTGC | -0.0798 |
| ATTATGGG | 0.152 |
| CAAGACCA | -0.13 |
| ATAGAATA | 0.134 |
| AAGGAGGC | -0.299 |
| GTCTGCTA | -0.0897 |
| CCCCCTCG | -0.242 |
| ATGACAAG | -0.0539 |
| GAGCCTTA | -0.0614 |
| GACTTGGC | 0.0496 |
| CGTCGGCC | -0.143 |
| AATACTAT | 0.153 |
| CGCGGGGA | 0.292 |
| ACCCGTAA | 0.0347 |
| CCCTCGAC | -0.0229 |
| GTACGTAC | -0.0834 |
| GTCATTCA | 0.115 |
| GCAAAACA | -0.0563 |

| Sequence | PBM E-score |
| --- | --- |
| CACGGTGA | 0.106 |
| CTCGGCGC | 0.193 |
| GAGACCTC | 0.0786 |
| CGCCATAG | 0.1 |
| ATAGCACC | -0.148 |
| AGGTCTTA | -0.189 |
| ATGTAAAG | 0.0242 |
| CAGCATAG | -0.0287 |
| CAGAGTCG | 0.328 |
| ACGCAATG | -0.0888 |
| CGGCCATA | -0.111 |
| AGTACGCA | -0.0941 |
| AAGAGACG | -0.127 |
| AAGGAGTG | 0.0706 |
| ATGTACCG | 0.084 |
| ACCAATAT | 0.151 |
| CAGACTAA | 0.117 |
| CGGCTCTA | 0.0843 |
| CTCAGAAA | -0.0969 |
| CTTACCCC | -0.156 |
| ACTTGTTG | -0.0998 |
| ACACACGC | 0.183 |
| AACCGTGA | 0.0681 |
| ACCTCGCA | -0.0858 |
| AACAGCAA | 0.0779 |

| Sequence | PBM E-score |
| --- | --- |
| CGCCAAGC | -0.192 |
| AGGTATTC | -0.144 |
| ACGCGGGC | 0.206 |
| AATACGCA | -0.0668 |
| ACACCAGG | 0.111 |
| AAATCAAC | -0.0401 |
| CTCGCTCC | 0.196 |
| CCACGGAC | -0.0292 |
| CGAGCCAA | 0.00102 |
| AGCGAGCA | -0.121 |
| GTCGCCTA | 0.0142 |
| AGTCGCTA | 0.174 |
| CATAGCCA | 0.142 |
| CTAGGCCC | -0.21 |
| AGCGGGTG | 0.014 |
| GATTACAC | 0.141 |
| GCAAGGGA | 0.0335 |
| ACCTTCAC | -0.00257 |
| ATATTATC | 0.0882 |
| CGATAATC | -0.0502 |
| ACGTCACC | -0.0531 |
| GTGGGACA | 0.0875 |
| CAAGTCCC | -0.219 |
| GACCGTAC | -0.225 |
| CACTGAAA | 0.0366 |

| Sequence | PBM E-score |
| --- | --- |
| ATGTCCAC | -0.0274 |
| ATCCTATA | 0.177 |
| CGTTCGGC | 0.00075 |
| CGTAACTA | -0.022 |
| AAAAGAGC | -0.163 |
| AGTATATC | 0.0944 |
| ATGTAGGA | -0.146 |
| CGGTTTTC | 0.0491 |
| ATCGACAT | 0.013 |
| ACCTCATC | 0.0088 |
| CGGGCTTA | -0.0289 |
| CGGACCCG | 0.0841 |
| GCTGCACC | 0.0112 |
| CGCATTAC | 0.0236 |
| CTACCATC | -0.0279 |
| AGAGCTTA | -0.271 |
| ATCTCATA | 0.00201 |
| CCCGGAAC | -0.139 |
| AACTGTAA | 0.135 |
| GAGGCCGC | -0.167 |
| AAGAAACG | -0.123 |
| TCAGTCGA | 0.096 |
| CCTGAGAA | -0.225 |
| CAGAGCGG | -0.0139 |
| CCTGCCTA | -0.0135 |

| Sequence | PBM E-score |
| --- | --- |
| AGTTGTTG | 0.0147 |
| ATATACTA | 0.257 |
| CCCGTGTA | -0.0121 |
| GAAGGCGA | -0.101 |
| ATCATACC | 0.25 |
| GGCTACCC | -0.179 |
| GGATCCGA | -0.0296 |
| GACATGTC | -0.13 |
| AAAAAACA | -0.0608 |
| ACCCGGAC | 0.0466 |
| ATTATCTA | 0.0263 |
| GTTATGCA | -0.119 |
| CTGGTACC | -0.00802 |
| TTCGCCAA | -0.108 |
| ACAGTGAC | 0.261 |
| CATCGGCG | 0.0316 |
| CGTCAATA | -0.142 |
| ATGCGGAC | 0.0012 |
| GCTTCTCC | -0.0809 |
| ATTGCCAG | 0.0576 |
| AATACCAC | 0.0755 |
| ACTGTCCT | 0.145 |
